# Assay results: the supplement of paper PMC9588766
# Where a name gives a salt, the structure may show the parent alone. In all, about 1,900 compounds were measured (“cell viability of compound + 1 nM pemigatinib relative to pemigatinib-only (DMSO) wells”: median about 0.95, lowest 2% from about 0.22 on). The list shows a part of the results.
# System: PDC-DUC18828
# Assay: cell viability of compound + 1 nM pemigatinib relative to pemigatinib-only (DMSO) wells (fraction); PDC-DUC18828 is a patient-derived cholangiocarcinoma cell line; higher = less growth inhibition
# Settings: first compound 1 µM; pemigatinib concentration 1 nM; 72 h
# Experimental: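 Selleck Bioactive library screen in the patient-derived FGFR2 fusion-positive ICC cell line PDC-DUC18828 (500 cells/well). Each compound was tested at 1 uM with 1 nM pemigatinib, in triplicate, for 72 h. Viability was read by CellTiter-Glo and normalised to plate DMSO controls. Value is the paper's averaged normalised viability.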
row,SMILES,cell viability
1,CC1(C)S[C@@H]2[C@H](NC(=O)[C@H](NC(=O)N3CCNC3=O)c3ccccc3)C(=O)N2[C@H]1C(=O)O [Azlocillin sodium salt] + CCN1C(=O)N(c2c(F)c(OC)cc(OC)c2F)Cc2cnc3[nH]c(CN4CCOCC4)cc3c21 [pemigatinib],0.915
2,O=C(N/N=C/c1cc(O)c(O)cc1O)c1cc2ccccc2cc1O [Dyngo-4a] + CCN1C(=O)N(c2c(F)c(OC)cc(OC)c2F)Cc2cnc3[nH]c(CN4CCOCC4)cc3c21 [pemigatinib],0.924
3,CC(C(=O)O)c1ccc2c(c1)Cc1cccnc1O2 (stereo not drawn) [Pranoprofen] + CCN1C(=O)N(c2c(F)c(OC)cc(OC)c2F)Cc2cnc3[nH]c(CN4CCOCC4)cc3c21 [pemigatinib],0.985
4,Clc1ccc(NN=C(c2ccccc2)c2ccccn2)nc1 + CCN1C(=O)N(c2c(F)c(OC)cc(OC)c2F)Cc2cnc3[nH]c(CN4CCOCC4)cc3c21 [pemigatinib],0.33
5,C[N+]1(C)[C@@H]2C[C@@H](OC(=O)C(O)(c3cccs3)c3cccs3)C[C@H]1[C@@H]1O[C@@H]12 [Tiotropium Bromide hydrate] + CCN1C(=O)N(c2c(F)c(OC)cc(OC)c2F)Cc2cnc3[nH]c(CN4CCOCC4)cc3c21 [pemigatinib],0.982
6,CC(=O)Nc1ccccc1 [Acetanilide] + CCN1C(=O)N(c2c(F)c(OC)cc(OC)c2F)Cc2cnc3[nH]c(CN4CCOCC4)cc3c21 [pemigatinib],0.903
7,O=C(/C=C/c1ccc2ccccc2n1)c1ccncc1 + CCN1C(=O)N(c2c(F)c(OC)cc(OC)c2F)Cc2cnc3[nH]c(CN4CCOCC4)cc3c21 [pemigatinib],1.02
8,Cc1cc(C(N)=O)ccc1-n1c(CCC(=O)O)ccc1-c1ccc(-n2ccnc2)cc1 + CCN1C(=O)N(c2c(F)c(OC)cc(OC)c2F)Cc2cnc3[nH]c(CN4CCOCC4)cc3c21 [pemigatinib],0.909
9,COC(=O)C[C@H](NC(=O)[C@H](C)NC(=O)[C@@H](NC(=O)OCc1ccccc1)C(C)C)C(=O)CF + CCN1C(=O)N(c2c(F)c(OC)cc(OC)c2F)Cc2cnc3[nH]c(CN4CCOCC4)cc3c21 [pemigatinib],0.945
10,COC(=O)C1=C(C)NC(C)=C(C(=O)OCCN2CCN(C(c3ccccc3)c3ccccc3)CC2)C1c1cccc([N+](=O)[O-])c1 (stereo not drawn) [Manidipine] + CCN1C(=O)N(c2c(F)c(OC)cc(OC)c2F)Cc2cnc3[nH]c(CN4CCOCC4)cc3c21 [pemigatinib],0.888
11,COC(=O)C1=C(C)NC(C)=C(C(=O)OCCN2CCN(C(c3ccccc3)c3ccccc3)CC2)C1c1cccc([N+](=O)[O-])c1 (stereo not drawn) [Manidipine 2HCl] + CCN1C(=O)N(c2c(F)c(OC)cc(OC)c2F)Cc2cnc3[nH]c(CN4CCOCC4)cc3c21 [pemigatinib],0.935
12,CC(C)N(C[C@H]1O[C@@H](n2cnc3c(N)ncnc32)[C@H](O)[C@@H]1O)[C@H]1C[C@@H](CCc2nc3cc(C(C)(C)C)ccc3[nH]2)C1 + CCN1C(=O)N(c2c(F)c(OC)cc(OC)c2F)Cc2cnc3[nH]c(CN4CCOCC4)cc3c21 [pemigatinib],0.91
13,COC(c1ccccc1)(c1ccccc1)[C@H](Oc1nc(C)cc(C)n1)C(=O)O [Ambrisentan] + CCN1C(=O)N(c2c(F)c(OC)cc(OC)c2F)Cc2cnc3[nH]c(CN4CCOCC4)cc3c21 [pemigatinib],1.02
14,C[N+]1(C)[C@@H]2CC[C@H]1C[C@@H](OC(=O)C(O)c1ccccc1)C2 (stereo partly drawn) [Homatropine Methylbromide] + CCN1C(=O)N(c2c(F)c(OC)cc(OC)c2F)Cc2cnc3[nH]c(CN4CCOCC4)cc3c21 [pemigatinib],0.913
15,O=c1cc(N2CCOCC2)oc2c(-c3cccc4c3sc3ccccc34)cccc12 + CCN1C(=O)N(c2c(F)c(OC)cc(OC)c2F)Cc2cnc3[nH]c(CN4CCOCC4)cc3c21 [pemigatinib],0.951
16,CC(C)(C(=O)O)c1ccc(C(O)CCCN2CCC(C(O)(c3ccccc3)c3ccccc3)CC2)cc1 (stereo not drawn) [Fexofenadine HCl] + CCN1C(=O)N(c2c(F)c(OC)cc(OC)c2F)Cc2cnc3[nH]c(CN4CCOCC4)cc3c21 [pemigatinib],0.909
17,COc1ccc([C@@H]2CC(=O)c3c(O)cc(O[C@@H]4O[C@H](CO[C@@H]5O[C@@H](C)[C@H](O)[C@@H](O)[C@H]5O)[C@@H](O)[C@H](O)[C@H]4O)cc3O2)cc1O [Hesperidin] + CCN1C(=O)N(c2c(F)c(OC)cc(OC)c2F)Cc2cnc3[nH]c(CN4CCOCC4)cc3c21 [pemigatinib],0.949
18,O=C[C@H](O)[C@@H](O)[C@H](O)CO [Xylose] + CCN1C(=O)N(c2c(F)c(OC)cc(OC)c2F)Cc2cnc3[nH]c(CN4CCOCC4)cc3c21 [pemigatinib],1.04
19,CC(=O)O[C@]1(C(C)=O)CC[C@H]2[C@@H]3C[C@H](C)C4=CC(=O)C=C[C@]4(C)[C@@]3(F)[C@@H](O)C[C@@]21C [Fluorometholone Acetate] + CCN1C(=O)N(c2c(F)c(OC)cc(OC)c2F)Cc2cnc3[nH]c(CN4CCOCC4)cc3c21 [pemigatinib],0.854
20,O=C(Nc1ccccc1)c1cc([N+](=O)[O-])ccc1Cl + CCN1C(=O)N(c2c(F)c(OC)cc(OC)c2F)Cc2cnc3[nH]c(CN4CCOCC4)cc3c21 [pemigatinib],0.909
21,C=C1C(=O)O[C@@H]2/C=C(\C)CC/C=C(\C)CC[C@@H]12 [Costunolide] + CCN1C(=O)N(c2c(F)c(OC)cc(OC)c2F)Cc2cnc3[nH]c(CN4CCOCC4)cc3c21 [pemigatinib],0.917
22,CCCc1cc(=O)[nH]c(=S)[nH]1 [Propylthiouracil] + CCN1C(=O)N(c2c(F)c(OC)cc(OC)c2F)Cc2cnc3[nH]c(CN4CCOCC4)cc3c21 [pemigatinib],0.939
23,Cc1onc(-c2ccccc2)c1-c1ccc(S(N)(=O)=O)cc1 [Valdecoxib] + CCN1C(=O)N(c2c(F)c(OC)cc(OC)c2F)Cc2cnc3[nH]c(CN4CCOCC4)cc3c21 [pemigatinib],0.913
